Assay results published in US7795244B2, “Penem prodrugs” (priority 2006, dated 2010).

Experimental: In the HIJ experiments, HIJ from 4 individual subjects (1 mL each) was pooled with 1 mL of 600 mM potassium phosphate buffer pH 7.4. Aliquots of 300 μL×6 of the buffered human intestinal juice were incubated at 37° C. following fortification of substrate at concentrations of 300, 100, 30, 10, 3, and 1 μM. Two prodrug compounds could be run at the same time. Samples of 35 μL were taken at 0, 05, 1, 2, 10, and 20 minutes and quenched with 70 μL of 80/20 acetonitrile/100 mM ammonium acetate pH 4.5 containing an internal standard (ampicillin, 5 μg/mL). Samples were centrifuged at 3000 g for 10 minutes and the supernatants transferred to injection vials. First order degradation of the prodrug was monitored by LC/MS/MS as described below. […]
Quenched samples from these in vitro experiments were quantified using LC/MS/MS. […] Ampicillin was used as an internal standard (5 μg/mL) The effluent was analyzed by a mass spectrometer detector (Sciex API 3000) fitted with a turbo ion spray interface and operated in positive ion mode with a declustering potential of 10V, temperature of 400° C. and collision energy of 25V. All prodrugs, sulopenem, and ampicillin, were monitored by MRM transitions of the protonated parent mass to a major fragment ion in the collision induced dissociation spectra. […]

| SMILES | gastrointestinal stability (in words) |
| --- | --- |
| CCC(CC)C(=O)OCOC(=O)C1=C(S[C@H]2CC[S@@+]([O-])C2)S[C@@H]2[C@@H]([C@@H](C)O)C(=O)N12 [Compound 1, (2-Ethyl-1-oxobutoxy)methyl (5R,6S)-6-[(1R)-1-hydroxyethyl]-7-oxo-3-[[(1R,3S)-tetrahydro-1-oxido-3-thienyl]thio]-4-thia-1-azabicyclo[3.2.0]hept-2-ene-2-carboxylate] | Improved gastrointestinal stability |
| C[C@@H](O)[C@H]1C(=O)N2C(C(=O)OCOC(=O)OC3CCC(C)(C)CC3)=C(S[C@H]3CC[S@@+]([O-])C3)S[C@H]12 [Compound A] | inherent instability in the gastrointestinal tract |
